Results: the supplement of paper PMC12217912
This is one part of the list. The full chains were built here from the parent and the listed change. Values near 0.05 are background.

B1: TEV protease; numbered along this chain (parent)
chain: MGESLFKGPRDYNPISSSICHLTNESDGHTTSLYGIGFGPFIITNKHLFRRNNGTLVVQSLHGVFKVKDTTTLQQHLVDGRDMIIIRMPKDFPPFPQKLKFREPQREERICLVTTNFQTKSMSSMVSDTSCTFPSGDGIFWKHWIQTKDGQCGSPLVSTRDGFIVGIHSASNFTNTNNYFTSVPKNFMELLTNQEAQQWVSGWRLNADSVLWGGHKVFMVKPEEPFQPVKEATQL

Variants of: B1
Test: raw area under fraction-flipped curve 0-4 h after induction (AUC4h, not background-subtracted), DNA-recorder readout of cleavage of the substrate (dimensionless); higher = more cleavage of the substrate by the protease variant
Settings: temperature: 34 °C; time window: 0-4 h after rhamnose induction
Experimental: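 In vivo DNA recorder in E. coli TOP10(DE3) ΔrhaA at 34 °C. Each TEVp single-site mutant (parent TEVp 0) is paired with a single-site variant of the 7-mer TEVs (canonical ENLYFQ|S). The substrate sits between flexible linkers in a Bxb1-sfGFP-TEVs-SsrA fusion, so cleavage stabilises Bxb1 and speeds flipping of a recombination array, read by NGS. The value is the raw area under the fraction-flipped curve over 0-4 h after rhamnose induction (AUC4h), with ≥20 reads per time point. It is not background-subtracted; inactive controls average about 0.047.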
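Note: Bxb1 expression induced with 0.2% (w/v) L-rhamnose at OD600 near 0.5, cultures sampled hourly, flipped fraction per protease–substrate barcode pair counted by paired-end Illumina sequencing.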

Variant	area with substrate ENLYFQA	area with substrate ENLYFQC	area with substrate ENLYFQD	area with substrate ENLYFQE	area with substrate ENLYFQF	area with substrate ENLYFQG	area with substrate ENLYFQH	area with substrate ENLYFQI	area with substrate ENLYFQK	area with substrate ENLYFQL	area with substrate ENLYFQM	area with substrate ENLYFQN	area with substrate ENLYFQP	area with substrate ENLYFQR	area with substrate ENLYFQS	area with substrate ENLYFQT	area with substrate ENLYFQV	area with substrate ENLYFQW	area with substrate ENLYFQY	area with substrate ENLYFQQ
G136T	0.092	0.112	0.0602	0.0596	0.0571	0.0838	0.0844	0.0521	0.0604	0.0651	0.0831	0.0818	0.0466	0.0607	0.1	0.0658	0.0534	0.0624	0.0728	
G136H	0.0819	0.134	0.0659		0.0728	0.106	0.0822	0.0657	0.056	0.063	0.0847	0.0598	0.051	0.0592	0.112	0.076	0.0498		0.0701	0.0623
G136Q	0.0938					0.0769	0.0769	0.0495	0.0683	0.0556		0.0732	0.0473	0.0706	0.103	0.072			0.0922	
L112C	0.0855	0.0789				0.0787	0.055		0.0683	0.0616	0.0443	0.0628	0.0435	0.0692	0.0831	0.0487	0.0676		0.0623	
L112W	0.0714	0.0768	0.0658	0.0704		0.0844	0.0593	0.0564		0.0497	0.0683	0.0798	0.0572	0.0583	0.0777	0.0441	0.0579		0.0432	
L112Q	0.076	0.0645	0.0712		0.0678				0.0768	0.0602	0.0547	0.0562		0.0586	0.0786	0.0594	0.0752	0.0573		0.0492
L112N	0.0747	0.0809	0.0583		0.0664	0.0796	0.055	0.0531	0.0561	0.0238	0.127	0.0595	0.0584	0.0573	0.0801	0.0541	0.0588	0.0569		0.0597
L112S	0.0674	0.0783			0.0636	0.0863	0.061	0.0588	0.0499	0.0702	0.0686	0.065			0.0781	0.054	0.0567	0.0473	0.0559	
P96M	0.104					0.081			0.0567			0.0564	0.0522	0.0542	0.0962	0.0683		0.0602	0.071	
P96N	0.0793	0.0855			0.0728	0.115	0.0936	0.0502	0.0603		0.0869	0.0792	0.0612		0.103	0.0386	0.0738	0.065	0.0917	
P96K	0.0982	0.123				0.125		0.0452	0.0637	0.0815	0.1	0.0869		0.0644	0.104			0.0587	0.0886	
P96V	0.0933	0.103	0.0689				0.0878	0.0542		0.0544	0.0839	0.0759	0.0562	0.0595	0.0975	0.0679			0.0812	
K120W	0.104	0.0895	0.0737							0.0548	0.0783		0.0543		0.0942	0.0645	0.0472			
K120Y	0.108	0.114	0.0661			0.0938	0.0761	0.0607		0.0603	0.0871	0.0744		0.0565	0.0945	0.0609	0.0566			
K120F	0.0998	0.124	0.0943			0.0758	0.0783	0.0305		0.0733		0.0799		0.0551	0.102	0.0425		0.0544	0.0858	
K120H	0.127	0.118	0.0457		0.0781	0.0688			0.0662	0.0679		0.0982		0.0586	0.112	0.0663	0.0524		0.0546	0.0846
K120P	0.0916	0.104	0.0962	0.0711						0.0841	0.0772		0.0589	0.0551	0.101	0.0672				
D149M	0.0991	0.105	0.0623		0.0606	0.0861		0.059	0.0562	0.0772	0.0748	0.0576		0.0508	0.0894	0.0539		0.0634		0.0628
P104M	0.0588	0.0616	0.048					0.0559	0.0416	0.0534	0.0511	0.0441	0.0375	0.0553	0.0539	0.0524	0.033	0.051	0.0432	0.0587
P104I	0.0655		0.0688	0.065		0.0665		0.0321	0.0459	0.0367	0.0563	0.0489	0.0546	0.0586	0.0659	0.0523	0.0392	0.0534	0.0405	0.0595
P104T	0.0565	0.0597				0.0426	0.0297	0.049		0.033		0.0698	0.0632		0.062	0.0534	0.053	0.0083		
P104D	0.0423	0.0529			0.0452	0.0265	0.0569	0.0438	0.0426	0.0429	0.0194	0.0423	0.0582	0.0478	0.0498	0.0488	0.0497	0.0524	0.0415	0.0485
P104L	0.0596		0.0474	0.0667		0.0752		0.041	0.0579	0.03	0.0531	0.0576		0.0557	0.0558	0.0536	0.0517	0.0553	0.0532	
P104W	0.0384	0.0511	0.0313		0.0511		0.0512		0.0483	0.0448	0.0491	0.0422	0.0431	0.0502	0.0561	0.0473		0.0512		
E103G	0.0782	0.105	0.0674				0.0777	0.0668	0.0662	0.0644	0.0865	0.0825	0.0452	0.0565	0.0928	0.0616	0.0842	0.0823	0.0681	
